Results published in US6545008B1, “Pyrimidine derivatives and processes for the preparation thereof” (Yuhan Corporation, priority 1998, dated 2003).
At least one read-out could not be matched to a standard name with certainty.

System: gastric acid secretion
Assay: Inhibition of gastric secretion in pylorus-ligated rats (Shay method)
Type: in vivo, Sprague-Dawley rats
Conditions: 10 mg/kg intraduodenally, 5 hours after ligation; for Relative acid output: reduction of acid output relative to omeprazole group; for Relative conc. (relative acid concentration): reduction of acidity relative to omeprazole group; for Relative volume: reduction of gastric juice volume relative to omeprazole group

SMILES | Relative acid output | Relative conc. (relative acid concentration) | Relative volume
Cc1cc(F)ccc1Nc1nc(C)c(C)c(N2CCc3ccc(F)cc3C2C)n1.Cl (stereo not drawn) [Example 6, 5,6-dimethyl-2-(2-methyl-4-fluorophenylamino)-4-(1-methyl-7-fluoro-1,2,3,4-tetrahydroisoquinolin-2-yl)pyrimidine hydrochloride] | 0.8 | 0.8 | 0.7
Cc1nc(Nc2ccc(F)cc2)nc(N2CCc3cc(F)ccc3C2C)c1C.Cl (stereo not drawn) [Example 14, 5,6-dimethyl-2-(4-fluorophenylamino)-4-(1-methyl-6-fluoro-1,2,3,4-tetrahydroisoquinolin-2-yl)pyrimidine hydrochloride] | 1.3 | 1.3 | 1.9
Cc1nc(Nc2ccc(F)cc2)nc(N2CCc3ccc(Cl)cc3C2C)c1C.Cl (stereo not drawn) [Example 29, 5,6-dimethyl-2-(4-fluorophenylamino)-4-(1-methyl-7-chloro-1,2,3,4-tetrahydroisoquinolin-2-yl)pyrimidine hydrochloride] | 1.0 | 1.2 | 0.9
Cc1nc(Nc2ccccc2)nc(N2CCc3ccc(F)cc3C2C)c1C.Cl (stereo not drawn) [Example 4, 5,6-dimethyl-2-phenylamino-4-(1-methyl-7-fluoro-1,2,3,4-tetrahydroisoquinolin-2-yl)pyrimidine hydrochloride] | 0.9 | 1.1 | 0.9
Cc1nc(Nc2ccccc2)nc(N2CCc3cc(F)ccc3C2C)c1C.Cl (stereo not drawn) [Example 15, 5,6-dimethyl-2-phenylamino-4-(1-methyl-6-fluoro-1,2,3,4-tetrahydroisoquinolin-2-yl)pyrimidine hydrochloride] | 1.0 | 1.6 | 0.7
Cc1ccccc1Nc1nc(C)c(C)c(N2CCc3c(Cl)cccc3C2C)n1.Cl (stereo not drawn) [Example 37, 5,6-dimethyl-2-(2-methylphenylamino)-4-(1-methyl-5-chloro-1,2,3,4-tetrahydroisoquinolin-2-yl)pyrimidine hydrochloride] | 0.9 | 0.8 | 0.9
Cc1nc(Nc2ccc(F)cc2)nc(N2CCc3ccc(F)cc3C2C)c1C.Cl (stereo not drawn) [Example 3, 5,6-dimethyl-2-(4-fluorophenylamino)-4-(1-methyl-7-fluoro-1,2,3,4-tetrahydroisoquinolin-2-yl)pyrimidine hydrochloride] | 0.9 | 1.2 | 0.7
Cc1c(CF)nc(Nc2ccc(F)cc2)nc1N1CCc2ccccc2C1C.Cl (stereo not drawn) [Example 24, 5-methyl-6-fluoromethyl-2-(4-fluorophenylamino)-4-(1-methyl-1,2,3,4-tetrahydroisoquinolin-2-yl)-pyrimidine hydrochloride] | 1.0 | 1.1 | 0.6
Cc1nc(Nc2ccc(F)cc2F)nc(N2CCc3ccccc3C2C)c1C.Cl (stereo not drawn) [Example 2, 5,6-dimethyl-2-(2,4-difluorophenylamino)-4-(1-methyl-1,2,3,4-tetrahydroisoquinolin-2-yl)pyrimidine hydrochloride] | 0.9 | 0.7 | 0.9
Cc1nc(Nc2ccc(F)c(F)c2)nc(N2CCc3ccccc3C2C)c1C.Cl (stereo not drawn) [Example 1, 5,6-dimethyl-2-(3,4-difluorophenylamino)-4-(1-methyl-1,2,3,4-tetrahydroisoquinolin-2-yl)pyrimidine hydrochloride] | 0.8 | 0.7 | 0.6
Cc1ccccc1Nc1nc(C)c(C)c(N2CCc3cc(F)ccc3C2C)n1.Cl (stereo not drawn) [Example 16, 5,6-dimethyl-2-(2-methylphenylamino)4-(1-methyl-6-fluoro-1,2,3,4-tetrahydroisoquinolin-2-yl)pyrimidine hydrochloride] | 0.9 | 0.9 | 1.0
